From the supplement of paper PMC10126150
Values marked as one replicate rest on one cluster of the flow cell; about a third of the high ones do not repeat.
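Note: ATP exposure 15 min at 22 °C before imaging.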

Each sequence was assayed on ATP (assay: switch fluorescence ratio, 500 uM ATP over buffer (Cy3 cluster intensity, sum of 5 cycles each) (fold (ratio)); higher = stronger signal-on switching upon ATP binding; sequences stand for … in TCGTCGGCAGCGTCAGATGTGTATAAGAGACAGTTTTTTTTTTTTTTTTTTTTTTTTT…TC). Conditions: aptamer strand: ATP DNA aptamer (quencher-CACCTGGGGGAGTATTGCGGAGGAAGG + anchor), 100 nM annealed; ATP concentration: 500 uM; one replicate.
How it was run: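 Clusters carrying Cy3-labelled switching strands on a modified Illumina MiSeq flow-cell were annealed to 100 nM quencher-labelled ATP aptamer and imaged in selection buffer. They were imaged again after 15 min with 500 uM ATP at 22 °C, over five buffer/ATP cycles with NaOH stripping and re-annealing in between. For each cluster, the fluorescence ratio is the summed Cy3 intensity of the target cycles divided by that of the buffer cycles, averaged per switch-domain sequence. Clusters outside 100-1000 RFU were left out.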
AGACGAGAAG showed a switch fluorescence ratio of 1.03. AGACGAGGGA gave a switch fluorescence ratio of 0.998. With AGACGATCGT the switch fluorescence ratio was 0.902. Sequence AGACGATGTT has a switch fluorescence ratio of 0.973. AGACGCAGGC was tested, and the switch fluorescence ratio was 1.11. In the case of AGACGCCGA, the switch fluorescence ratio is reported as 0.977. AGACGCGGAT showed a switch fluorescence ratio of 1.05. Sequence AGACGCGGGC has a switch fluorescence ratio of 1.08. Work on AGACGGTGGT yielded a switch fluorescence ratio of 0.986. AGACGTATAA was tested, and the switch fluorescence ratio was 1.02. AGACGTGGTC showed a switch fluorescence ratio of 0.961. Sequence AGACTAAAT has a switch fluorescence ratio of 0.997. AGACTCAGGG showed a switch fluorescence ratio of 1. AGACTCTCCA gave a switch fluorescence ratio of 1.02. AGACTGAAGG gave a switch fluorescence ratio of 0.993. Sequence AGACTGGTGT has a switch fluorescence ratio of 1.02. AGACTTAGGT showed a switch fluorescence ratio of 1.02. AGAGACAGCG showed a switch fluorescence ratio of 0.862. Sequence AGAGACCGAA has a switch fluorescence ratio of 1.01. In the case of AGAGACCGTG, the switch fluorescence ratio is reported as 1.05. AGAGACGCTG was tested, and the switch fluorescence ratio was 0.991. Sequence AGAGATAATC has a switch fluorescence ratio of 1.02. Sequence AGAGATGAGT has a switch fluorescence ratio of 1. With AGAGATGCGA the switch fluorescence ratio was 0.977. AGAGATGTCT showed a switch fluorescence ratio of 1.06. Sequence AGAGCCCACT has a switch fluorescence ratio of 1.01. Work on AGAGCGAAAA yielded a switch fluorescence ratio of 0.984. AGAGCTACCC gave a switch fluorescence ratio of 1.01. For AGAGCTCGAT, the switch fluorescence ratio was 1.01. AGAGGACCAG gave a switch fluorescence ratio of 0.975. For AGAGGCTCCC, the switch fluorescence ratio was 1.04. For AGAGGCTGAG, the switch fluorescence ratio was 0.951. AGAGGGCGAT showed a switch fluorescence ratio of 0.983. For AGAGGGTGGC, the switch fluorescence ratio was 1.15. In the case of AGAGGTAATG, the switch fluorescence ratio is reported as 1.02. In the case of AGAGGTCT, the switch fluorescence ratio is reported as 1.03. With AGAGGTCTTC the switch fluorescence ratio was 0.982. AGAGGTGCTG gave a switch fluorescence ratio of 1.12. Sequence AGAGGTGTT has a switch fluorescence ratio of 1.03. Work on AGAGGTTTCA yielded a switch fluorescence ratio of 1.01. With AGAGTAACAT the switch fluorescence ratio was 0.979. In the case of AGAGTAAGTA, the switch fluorescence ratio is reported as 0.991. With AGAGTAGGAC the switch fluorescence ratio was 1.03. For AGAGTATCGT, the switch fluorescence ratio was 0.975. Sequence AGAGTATGTG has a switch fluorescence ratio of 0.953. With AGAGTATTTC the switch fluorescence ratio was 1.03. AGAGTCAACA showed a switch fluorescence ratio of 1.04. AGAGTGTGCG showed a switch fluorescence ratio of 1.06. AGAGTGTGTG showed a switch fluorescence ratio of 0.958. Sequence AGATAGTGTC has a switch fluorescence ratio of 1.04. With AGATATATAA the switch fluorescence ratio was 0.975. AGATATATGC showed a switch fluorescence ratio of 1.06. Work on AGATATCCGG yielded a switch fluorescence ratio of 0.992. Sequence AGATATGCT has a switch fluorescence ratio of 0.963. AGATATTCGT was tested, and the switch fluorescence ratio was 1. For AGATCAGCTT, the switch fluorescence ratio was 0.956. Sequence AGATCAGTTC has a switch fluorescence ratio of 1.08. For AGATCATGAT, the switch fluorescence ratio was 0.986. Sequence AGATCATTAA has a switch fluorescence ratio of 0.981. AGATCGACCA was tested, and the switch fluorescence ratio was 0.982. Work on AGATCTCCAT yielded a switch fluorescence ratio of 0.989. AGATGAAGGC gave a switch fluorescence ratio of 0.983. In the case of AGATGAATAT, the switch fluorescence ratio is reported as 0.996. AGATGACCAT gave a switch fluorescence ratio of 0.975. AGATGGAAGG showed a switch fluorescence ratio of 0.992. AGATGGACAG showed a switch fluorescence ratio of 0.969. In the case of AGATGGACGT, the switch fluorescence ratio is reported as 1.02. With AGATGGCTAT the switch fluorescence ratio was 1. Work on AGATGGGTCA yielded a switch fluorescence ratio of 1.06. AGATGTCTGA was tested, and the switch fluorescence ratio was 0.951. AGATGTGCTC showed a switch fluorescence ratio of 1.06. AGATGTGTAA showed a switch fluorescence ratio of 0.996. Work on AGATGTGTG yielded a switch fluorescence ratio of 0.95. AGATTAGTTA was tested, and the switch fluorescence ratio was 1.01. Work on AGATTATTTG yielded a switch fluorescence ratio of 1.01. For AGATTGCGCC, the switch fluorescence ratio was 1.02. With AGATTGGCGC the switch fluorescence ratio was 0.984. For AGATTGTGGG, the switch fluorescence ratio was 1.02. In the case of AGATTTGCGC, the switch fluorescence ratio is reported as 1.01. Sequence AGATTTTGAG has a switch fluorescence ratio of 1.01. In the case of AGCAAAATAA, the switch fluorescence ratio is reported as 1.11. In the case of AGCAACGACC, the switch fluorescence ratio is reported as 4.86. Sequence AGCAACGTCA has a switch fluorescence ratio of 1.03. With AGCAAGATGT the switch fluorescence ratio was 1.08. Sequence AGCAATAAGG has a switch fluorescence ratio of 1.17.
